Measurements reported in paper PMC4823829.
Like-named read-outs stand apart in the source and are kept apart here. These are yes or no findings as the source states them, for the method shown. For part of these data: In cells and extracts the contact can be indirect. Some results given as binding are weak or reduced against the parent protein; the word gives no strength. For part of these data: Sequences can lack the tags named with a protein.

Sequences of proteins named here, by UniProt entry; tags and fusion partners are left off.
UniProt P05804: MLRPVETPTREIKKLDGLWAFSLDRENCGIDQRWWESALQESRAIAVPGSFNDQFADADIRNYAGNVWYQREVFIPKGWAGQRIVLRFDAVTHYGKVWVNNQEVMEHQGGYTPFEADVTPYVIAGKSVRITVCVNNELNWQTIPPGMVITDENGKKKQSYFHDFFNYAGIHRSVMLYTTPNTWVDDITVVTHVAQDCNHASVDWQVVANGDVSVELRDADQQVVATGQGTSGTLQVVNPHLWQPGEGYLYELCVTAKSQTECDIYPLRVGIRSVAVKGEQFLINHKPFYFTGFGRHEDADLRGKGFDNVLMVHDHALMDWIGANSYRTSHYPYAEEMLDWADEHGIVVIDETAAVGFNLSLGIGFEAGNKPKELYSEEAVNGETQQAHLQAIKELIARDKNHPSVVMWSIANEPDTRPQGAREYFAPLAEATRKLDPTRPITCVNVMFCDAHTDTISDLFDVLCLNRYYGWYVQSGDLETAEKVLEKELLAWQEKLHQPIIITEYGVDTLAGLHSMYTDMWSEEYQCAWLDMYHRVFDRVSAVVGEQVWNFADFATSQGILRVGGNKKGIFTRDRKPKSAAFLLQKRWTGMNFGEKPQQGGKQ
UniProt Q39255: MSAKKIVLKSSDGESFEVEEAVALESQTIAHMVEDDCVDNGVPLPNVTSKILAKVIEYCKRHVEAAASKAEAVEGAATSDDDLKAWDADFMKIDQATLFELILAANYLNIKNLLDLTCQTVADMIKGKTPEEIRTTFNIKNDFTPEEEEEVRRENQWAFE
UniProt Q9FHW7: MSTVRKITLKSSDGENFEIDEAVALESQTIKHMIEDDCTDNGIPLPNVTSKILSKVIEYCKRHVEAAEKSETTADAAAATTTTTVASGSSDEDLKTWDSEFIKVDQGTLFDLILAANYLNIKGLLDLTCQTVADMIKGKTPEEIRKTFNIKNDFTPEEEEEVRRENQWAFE
UniProt Q94AH6: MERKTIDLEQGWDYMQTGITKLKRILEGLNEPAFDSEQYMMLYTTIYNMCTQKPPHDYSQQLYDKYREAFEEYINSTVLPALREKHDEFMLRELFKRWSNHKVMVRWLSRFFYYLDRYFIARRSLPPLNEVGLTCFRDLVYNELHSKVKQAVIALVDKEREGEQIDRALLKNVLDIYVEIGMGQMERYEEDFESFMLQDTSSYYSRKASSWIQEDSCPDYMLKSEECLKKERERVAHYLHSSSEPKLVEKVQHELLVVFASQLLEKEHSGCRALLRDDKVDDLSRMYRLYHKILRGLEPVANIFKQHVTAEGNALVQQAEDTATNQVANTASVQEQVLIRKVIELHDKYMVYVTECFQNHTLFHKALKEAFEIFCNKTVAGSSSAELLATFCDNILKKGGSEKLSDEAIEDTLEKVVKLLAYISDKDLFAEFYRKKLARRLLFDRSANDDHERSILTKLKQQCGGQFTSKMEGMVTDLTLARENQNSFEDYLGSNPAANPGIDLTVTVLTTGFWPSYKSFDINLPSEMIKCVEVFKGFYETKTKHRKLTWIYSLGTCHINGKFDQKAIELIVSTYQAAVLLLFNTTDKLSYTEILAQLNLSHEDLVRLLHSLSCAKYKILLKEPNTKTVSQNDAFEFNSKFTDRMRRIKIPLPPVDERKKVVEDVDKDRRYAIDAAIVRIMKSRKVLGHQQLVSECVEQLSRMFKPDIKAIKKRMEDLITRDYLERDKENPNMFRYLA
UniProt Q7XA73: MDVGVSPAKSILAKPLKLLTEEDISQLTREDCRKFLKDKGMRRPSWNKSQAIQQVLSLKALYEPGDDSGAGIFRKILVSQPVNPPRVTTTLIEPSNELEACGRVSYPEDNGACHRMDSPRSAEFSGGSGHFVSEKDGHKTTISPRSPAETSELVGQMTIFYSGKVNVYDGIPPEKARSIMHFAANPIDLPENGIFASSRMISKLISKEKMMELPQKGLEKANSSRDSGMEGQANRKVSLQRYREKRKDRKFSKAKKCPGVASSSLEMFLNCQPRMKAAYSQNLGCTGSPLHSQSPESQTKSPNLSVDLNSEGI
UniProt Q8GY55: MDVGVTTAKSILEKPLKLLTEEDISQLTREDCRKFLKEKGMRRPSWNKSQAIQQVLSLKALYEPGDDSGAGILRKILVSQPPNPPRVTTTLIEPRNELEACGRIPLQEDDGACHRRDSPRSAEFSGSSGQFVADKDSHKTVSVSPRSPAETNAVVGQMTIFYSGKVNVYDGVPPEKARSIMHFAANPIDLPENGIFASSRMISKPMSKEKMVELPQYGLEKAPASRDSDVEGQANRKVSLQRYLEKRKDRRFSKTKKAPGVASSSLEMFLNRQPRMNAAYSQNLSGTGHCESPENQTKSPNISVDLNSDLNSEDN

How the values were obtained:
[1] = molecular target: T1, SAP as two-hybrid bait (pGBKT7) (Arabidopsis thaliana) (UniProt Q9FKH1); test: two-hybrid; Matchmaker Gold; SAP and domain derivatives as bait in pGBKT7, ASK1, ASK2 and DA1 as prey in pGADT7; yeast strain Y2HGold; selective medium SD/-Ade/-His/-Leu/-Trp
T1 sequence: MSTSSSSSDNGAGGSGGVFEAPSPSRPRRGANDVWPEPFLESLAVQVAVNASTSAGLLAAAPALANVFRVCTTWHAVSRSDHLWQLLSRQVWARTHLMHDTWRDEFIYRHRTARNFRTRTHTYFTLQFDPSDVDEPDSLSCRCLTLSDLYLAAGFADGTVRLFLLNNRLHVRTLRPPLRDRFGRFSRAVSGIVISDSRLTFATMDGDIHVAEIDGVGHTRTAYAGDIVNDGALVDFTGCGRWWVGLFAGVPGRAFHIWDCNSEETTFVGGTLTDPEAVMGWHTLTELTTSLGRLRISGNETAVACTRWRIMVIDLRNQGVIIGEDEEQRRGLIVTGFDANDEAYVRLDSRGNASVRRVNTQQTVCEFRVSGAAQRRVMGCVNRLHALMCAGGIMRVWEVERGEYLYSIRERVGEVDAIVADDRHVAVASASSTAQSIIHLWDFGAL

[2] = molecular target: GST-GUS (negative control) (UniProt P05804); test: pull-down; bacterial lysates with ~30 μg GST-SAP and ~30 μg His-ASK1 or His-ASK2 combined; glutathione sepharose, 4 °C 1 h; washed five times with TGH buffer (50 mM HEPES pH 7.5, 150 mM NaCl, 1% Triton X-100); anti-His blot
[3] = molecular target: T2, GST-SAP (Arabidopsis thaliana) (UniProt Q9FKH1); test: as above
T2 sequence: T1 sequence

[4] = molecular target: T3, GFP-SAP expressed transiently in N. benthamiana leaves (Arabidopsis thaliana) (UniProt Q9FKH1); test: co-IP; transient co-expression in N. benthamiana leaves; total proteins with GFP-Trap-A 1 h at 4 °C; anti-GFP and anti-Myc blots
T3 sequence: T1 sequence

[5] = molecular target: T4, GFP-SAP (STERILE APETALA) from 35S:GFP-SAP transgenic Arabidopsis plants (Arabidopsis thaliana) (UniProt Q9FKH1); test: co-IP; total proteins of leaves of transgenic Arabidopsis plants (35S:GFP-SAP or 35S:GFP crossed with 35S:Myc-PPD1 or 35S:Myc-PPD2) with GFP-Trap-A agarose 1 h at 4 °C; anti-GFP and anti-Myc blots
T4 sequence: T1 sequence

[6] = molecular target: T5, nYFP-SAP (Arabidopsis thaliana) (UniProt Q9FKH1); test: split reporter; BiFC: nYFP and cYFP fusions co-infiltrated into N. benthamiana leaves, observed after 50 h by confocal microscopy
T5 sequence: T1 sequence

[7] = molecular target: GFP-ASK1 (Arabidopsis thaliana) (UniProt Q39255); test: co-IP; transient co-expression in N. benthamiana leaves; total proteins with GFP-Trap-A 1 h at 4 °C; anti-GFP and anti-Myc blots
[8] = molecular target: GFP-ASK2 (Arabidopsis thaliana) (UniProt Q9FHW7); test: as above
[9] = molecular target: T1, SAP as two-hybrid bait (pGBKT7) (Arabidopsis thaliana); test: two-hybrid; Matchmaker Gold; SAP and domain derivatives as bait in pGBKT7, ASK1, ASK2 and DA1 as prey in pGADT7; yeast strain Y2HGold; selective medium SD/-Ade/-His/-Leu/-Trp; remark: listed apart in the source
[10] = molecular target: T6, MBP-SAP (Arabidopsis thaliana) (UniProt Q9FKH1); test: pull-down; bacterial lysates with ~30 μg MBP-SAP and ~20 μg DA1-His combined; amylase resin (New England Biolabs), 4 °C 1 h; washed five times with TGH buffer; anti-MBP and anti-His blots
T6 sequence: T1 sequence

“ASK1-AD (two-hybrid prey, pGADT7) (from UniProt Q39255 1-160)” was tested, and the binding [1] was “binds”.

His-ASK1 (from UniProt Q39255 1-160) was tested, and the binding [2] was “no binding” and the binding [3] was “binds”.

In the case of Myc-CUL1 (from UniProt Q94AH6 1-738), the binding [4] is reported as “binds”.

In the case of Myc-PPD1 (from UniProt Q7XA73 1-313), the binding [5] is reported as “binds”.

For Myc-PPD2 (from UniProt Q8GY55 1-315), the binding [5] was “binds”.

With cYFP-PPD1 (from UniProt Q7XA73 1-313) the binding [6] was “binds”.

For cYFP-PPD2 (from UniProt Q8GY55 1-315), the binding [6] was “binds”.

B1: Myc-SAP (protein, UniProt Q9FKH1 1-446)
chain: T1 sequence
With B1 the binding [7] was “binds” and the binding [8] was “binds”.

B2: DA1-AD (two-hybrid prey, pGADT7) (protein, UniProt P0C7Q8 1-532)
chain: MGWFNKIFKGSNQRLRVGNNKHNHNVYYDNYPTASHDDEPSAADTDADNDEPHHTQEPSTSEDNTSNDQENEDIDRAIALSLLEENQEQTSISGKYSMPVDEDEQLARALQESMVVGNSPRHKSGSTYDNGNAYGAGDLYGNGHMYGGGNVYANGDIYYPRPITFQMDFRICAGCNMEIGHGRFLNCLNSLWHPECFRCYGCSQPISEYEFSTSGNYPFHKACYRERYHPKCDVCSHFIPTNHAGLIEYRAHPFWVQKYCPSHEHDATPRCCSCERMEPRNTRYVELNDGRKLCLECLDSAVMDTMQCQPLYLQIQNFYEGLNMKVEQEVPLLLVERQALNEAREGEKNGHYHMPETRGLCLSEEQTVSTVRKRSKHGTGKWAGNITEPYKLTRQCEVTAILILFGLPRLLTGSILAHEMMHAWMRLKGFRTLSQDVEEGICQVMAHKWLDAELAAGSTNSNAASSSSSSQGLKKGPRSQYERKLGEFFKHQIESDASPVYGDGFRAGRLAVHKYGLRKTLEHIQMTGRFPV
In the case of B2, the binding [9] is reported as “no binding”.

B3: DA1-His (protein, UniProt P0C7Q8 1-532)
chain: B2 chain
For B3, the binding [10] was “no binding”.
